Test results taken from the supplement of paper PMC12217912.
This is one part of the list. Sequences were assembled here from the parent chain. Inactive controls read about 0.05.

B1: TEV protease; numbered along this chain (parent)
chain: MGESLFKGPRDYNPISSSICHLTNESDGHTTSLYGIGFGPFIITNKHLFRRNNGTLVVQSLHGVFKVKDTTTLQQHLVDGRDMIIIRMPKDFPPFPQKLKFREPQREERICLVTTNFQTKSMSSMVSDTSCTFPSGDGIFWKHWIQTKDGQCGSPLVSTRDGFIVGIHSASNFTNTNNYFTSVPKNFMELLTNQEAQQWVSGWRLNADSVLWGGHKVFMVKPEEPFQPVKEATQL

Variants of: B1
Test: raw area under fraction-flipped curve 0-4 h after induction (AUC4h, not background-subtracted), DNA-recorder readout of cleavage of the substrate (dimensionless); higher = more cleavage of the substrate by the protease variant
Conditions: temperature: 34 °C; time window: 0-4 h after rhamnose induction
Protocol: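 In vivo DNA recorder in E. coli TOP10(DE3) ΔrhaA at 34 °C. Each TEVp single-site mutant (parent TEVp 0) is paired with a single-site variant of the 7-mer TEVs (canonical ENLYFQ|S). The substrate sits between flexible linkers in a Bxb1-sfGFP-TEVs-SsrA fusion, so cleavage stabilises Bxb1 and speeds flipping of a recombination array, read by NGS. The value is the raw area under the fraction-flipped curve over 0-4 h after rhamnose induction (AUC4h), with ≥20 reads per time point. It is not background-subtracted; inactive controls average about 0.047.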
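Further: Bxb1 expression induced with 0.2% (w/v) L-rhamnose at OD600 near 0.5, cultures sampled hourly, flipped fraction per protease–substrate barcode pair counted by paired-end Illumina sequencing.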

Variant | area with substrate ENLYFAS | area with substrate ENLYFCS | area with substrate ENLYFES | area with substrate ENLYFFS | area with substrate ENLYFGS | area with substrate ENLYFIS | area with substrate ENLYFKS | area with substrate ENLYFLS | area with substrate ENLYFMS | area with substrate ENLYFNS | area with substrate ENLYFPS | area with substrate ENLYFRS | area with substrate ENLYFVS | area with substrate ENLYFWS | area with substrate ENLYFYS | area with substrate ENLYFHS | area with substrate ENLYFSS | area with substrate ENLYFTS | area with substrate ENLYFDS
T132A | 0.0759 | 0.0538 | 0.0584 | 0.0637 | 0.0506 | 0.0594 | 0.0564 | 0.0515 | 0.0621 | 0.0507 | 0.0624 | 0.0838 | 0.0544 | 0.0482 | 0.0424 | – | – | – | –
V157D | 0.0522 | – | 0.049 | 0.0622 | – | 0.043 | 0.0477 | 0.0436 | 0.0391 | 0.0443 | 0.0848 | 0.0524 | 0.0506 | 0.0448 | 0.061 | 0.0501 | 0.0491 | – | –
V157L | 0.0641 | 0.054 | 0.058 | 0.0604 | – | 0.0512 | 0.0671 | 0.0537 | 0.0518 | – | 0.0549 | 0.0472 | 0.0565 | 0.0664 | – | 0.0527 | 0.0541 | 0.049 | –
V157S | 0.0545 | – | 0.0523 | 0.0686 | – | 0.0566 | – | – | – | 0.0574 | 0.0614 | 0.0519 | 0.0538 | 0.0769 | 0.0449 | 0.058 | 0.0692 | – | –
S121W | 0.0797 | 0.0528 | 0.0458 | 0.0665 | – | 0.0481 | – | 0.0456 | 0.0684 | 0.0695 | – | 0.0588 | – | 0.0681 | 0.0586 | – | 0.0572 | 0.0616 | –
S171L | 0.0583 | 0.0152 | 0.0663 | 0.0722 | – | 0.0472 | 0.064 | – | 0.0658 | 0.0689 | 0.054 | 0.0555 | – | – | – | – | 0.0607 | 0.0587 | 0.0788
G166D | 0.0403 | 0.0699 | 0.0572 | 0.0679 | 0.0465 | 0.0475 | 0.0519 | 0.052 | 0.0511 | 0.052 | 0.0316 | 0.0513 | 0.0551 | 0.0436 | 0.0548 | 0.0429 | 0.053 | 0.029 | 0.055
G166A | 0.0466 | – | 0.0411 | 0.0592 | – | 0.045 | 0.0562 | – | 0.0558 | 0.0494 | 0.0537 | 0.0518 | 0.0551 | 0.0494 | 0.0565 | 0.0331 | 0.0494 | 0.0514 | 0.0566
K148E | 0.0626 | 0.0749 | 0.0672 | 0.0734 | – | 0.0505 | 0.0473 | – | 0.0703 | 0.0604 | 0.0633 | 0.082 | – | 0.0581 | 0.0631 | – | 0.0536 | 0.0552 | 0.0589
K148R | 0.0579 | 0.0582 | – | 0.0798 | – | 0.0732 | – | 0.0543 | 0.0818 | 0.0304 | 0.0513 | 0.0575 | – | 0.0497 | – | 0.0623 | 0.0708 | 0.0528 | –
K148Q | 0.0551 | 0.0608 | 0.0651 | 0.0834 | 0.0674 | – | 0.0587 | 0.0591 | 0.0667 | 0.0615 | 0.0652 | 0.0585 | 0.061 | – | – | 0.0688 | 0.0596 | – | –
L156E | 0.0537 | 0.0573 | 0.0445 | 0.0621 | – | 0.0503 | 0.0429 | – | 0.0437 | 0.0522 | 0.0467 | 0.0532 | 0.0535 | 0.0595 | – | – | – | 0.0474 | 0.0504
S124R | 0.0577 | 0.0698 | 0.0614 | 0.0696 | – | 0.0621 | 0.0892 | 0.0759 | 0.0697 | 0.052 | 0.0603 | 0.0389 | 0.0651 | – | 0.0599 | 0.0581 | – | 0.0663 | –
S124V | 0.0389 | 0.0596 | 0.0683 | 0.0671 | 0.049 | 0.052 | 0.068 | – | 0.0555 | – | 0.0576 | 0.0483 | 0.0575 | 0.0566 | – | – | – | 0.0589 | 0.0602
Q146K | 0.0588 | 0.0575 | 0.0586 | 0.0696 | 0.0396 | 0.058 | 0.0639 | 0.0561 | 0.0757 | 0.0729 | 0.0696 | – | 0.0505 | 0.0561 | 0.0887 | 0.0431 | – | 0.062 | 0.0619
Q146T | 0.0655 | 0.0667 | 0.0694 | 0.0566 | – | 0.0605 | 0.0728 | 0.0525 | 0.0621 | 0.0597 | 0.0579 | – | 0.0525 | 0.0598 | – | – | 0.0305 | 0.0262 | –
Q146C | 0.0534 | – | 0.0686 | 0.0689 | 0.0477 | 0.0642 | 0.0499 | 0.0455 | 0.09 | 0.0644 | 0.0683 | 0.0356 | 0.0537 | – | 0.0535 | – | 0.0647 | 0.0527 | 0.0528
T147Q | 0.0573 | 0.066 | 0.0571 | 0.0778 | – | – | – | – | 0.0657 | – | 0.0629 | 0.0604 | 0.0664 | – | 0.0502 | 0.0681 | 0.0569 | 0.0589 | –
S169M | 0.0604 | 0.0714 | 0.0669 | 0.074 | – | 0.0573 | – | – | 0.0532 | 0.0611 | 0.0583 | 0.04 | 0.0646 | – | 0.0554 | – | 0.0539 | 0.063 | –
S169W | 0.0656 | 0.0622 | 0.0642 | – | – | 0.0524 | 0.0646 | – | – | – | 0.065 | – | 0.0849 | – | 0.0565 | 0.0469 | – | – | –
P134G | 0.0674 | – | 0.0642 | – | – | 0.0638 | 0.0569 | – | – | – | – | – | – | – | – | 0.0691 | 0.0422 | – | –
P134D | 0.0572 | 0.0592 | 0.059 | 0.0707 | 0.0711 | 0.0598 | 0.0546 | 0.0558 | 0.0619 | 0.0647 | 0.062 | 0.0617 | 0.0467 | – | 0.0566 | 0.0635 | 0.0574 | 0.0676 | 0.0565
S123I | 0.0588 | 0.0613 | 0.0483 | 0.061 | – | 0.0573 | 0.0596 | 0.0653 | 0.0696 | 0.0655 | 0.0873 | 0.0611 | 0.0599 | 0.0629 | 0.0483 | 0.0615 | 0.0601 | 0.0836 | 0.0353
S123D | 0.0436 | – | 0.0602 | 0.0635 | 0.0615 | 0.056 | 0.0619 | 0.0725 | 0.0595 | 0.064 | 0.0679 | 0.0707 | 0.0523 | 0.0596 | 0.0561 | – | 0.0548 | 0.0561 | 0.0556
